Results reported in a collection of fitness landscapes (doi:10.1016/j.celrep.2020.107928).
In all, about 81,000 sequences were measured (“one-hybrid fitness for binding parS DNA”: median about -0.17, highest 2% from about 0.51 on). Some of the results follow.

B1: Caulobacter ParB omega fusion; a variant is named by its letters at X, in order, B8GW30 (parent)
chain: MESVVVGEPGMSEGRRGLGRGLSALLGEVDAAPAQAPGEQLGGSREAPIEILQRNPDQPRRTFREEDLEDLSNSIREKGVLQPILVRPSPDTAGEYQIVAGERAWRAAQRAGLKTVPIMVRELDDLAVLEIGIIENVQRADLNVLEEALSYKVLMEKFERTQENIAQTIGKSXSHVANXMRLLXLPDEVQSYLVSGELTAXHARAIAAAADPVALAKQIIEGGLSVRETEALARKAPNLSAGKSKGGRPPRVKDTDTQALESDLSSVLGLDVSIDHRGSTGTLTITYATLEQLDDLCNRLTRGI

Variants of: B1
Test: one-hybrid fitness for binding parS DNA (scaled: cognate 1, non-cognate 0); higher = stronger binding
Details: with parS DNA site
Summary of the method: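 Caulobacter ParB libraries with four specificity codons randomised were screened by bacterial one-hybrid selection in the E. coli USO strain, using a HIS3 reporter whose site lies 19 bp from the promoter. Selection ran for 48 hours at 37°C on M9 lacking histidine, with 0.1 mM IPTG and 5 mM 3-AT. Plasmids were Illumina-sequenced before and after selection, three replicate libraries were pooled, and variants with under 10 reads were dropped. Fitness is the log change in each variant's read ratio to wild type, rescaled against the cognate and non-cognate sites.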

Variant | one-hybrid fitness for binding parS DNA
KGEV | ≤ 0.2
ILGL | ≤ 0.2
AKAR | ≤ 0.2
LLIV | ≤ 0.2
NALV | ≤ 0.2
QYHE | ≤ 0.2
CGNI | ≤ 0.2
DRKS | ≤ 0.2
PTWW | ≤ 0.2
NTNQ | ≤ 0.2
MCMR | ≤ 0.2
TLHG | ≤ 0.2
HSHM | ≤ 0.2
QHSS | ≤ 0.2
KPLD | ≤ 0.2
FSLC | ≤ 0.2
VVQF | ≤ 0.2
NVGS | ≤ 0.2
VAQW | ≤ 0.2
PPTR | ≤ 0.2
PNPL | ≤ 0.2
LDCG | ≤ 0.2
NVLW | ≤ 0.2
KMQC | ≤ 0.2
CMRT | ≤ 0.2
REFG | ≤ 0.2

Variant | one-hybrid fitness for binding parS DNA
VMAV | ≤ 0.2
SLIG | ≤ 0.2
TRHE | ≤ 0.2
SCKK | ≤ 0.2
MHPL | ≤ 0.2
AVPE | ≤ 0.2
TMPC | ≤ 0.2
CILL | ≤ 0.2
KSRH | ≤ 0.2
DKNT | ≤ 0.2
ALPT | ≤ 0.2
LVIC | ≤ 0.2
WYAS | ≤ 0.2
SFMH | ≤ 0.2
NNNL | ≤ 0.2
GRLY | ≤ 0.2
PHEF | ≤ 0.2
PLLE | ≤ 0.2
RFHM | 0.301
QACC | ≤ 0.2
PKRG | ≤ 0.2
ITYM | ≤ 0.2
NRSI | ≤ 0.2
NLDH | ≤ 0.2
PIEG | ≤ 0.2
SMLI | ≤ 0.2

Variant | one-hybrid fitness for binding parS DNA
DGIM | ≤ 0.2
PSHY | ≤ 0.2
ICNL | ≤ 0.2
RCVG | 0.991
WVNG | ≤ 0.2
LLWV | ≤ 0.2
QFNI | ≤ 0.2
WLVA | ≤ 0.2
CKDR | ≤ 0.2
VWLP | ≤ 0.2
KCQR | ≤ 0.2
EPTT | ≤ 0.2
WCAC | ≤ 0.2
MMTS | ≤ 0.2
PGPR | ≤ 0.2
AALL | ≤ 0.2
CQRY | ≤ 0.2
PKAK | ≤ 0.2
TKYM | ≤ 0.2
QTLN | ≤ 0.2
PNAQ | ≤ 0.2
CLDE | ≤ 0.2
QGCI | ≤ 0.2
SAGI | ≤ 0.2
MLIY | ≤ 0.2
YSTM | ≤ 0.2

Variant | one-hybrid fitness for binding parS DNA
PTLA | ≤ 0.2
KVMR | ≤ 0.2
AATP | ≤ 0.2
TRLD | ≤ 0.2
HSVG | ≤ 0.2
QRLM | ≤ 0.2
RDNV | ≤ 0.2
SVHG | ≤ 0.2
KDTP | ≤ 0.2
RTWV | ≤ 0.2
WPPI | ≤ 0.2
VCNR | ≤ 0.2
VEPF | ≤ 0.2
LGWC | ≤ 0.2
NHYF | ≤ 0.2
HART | ≤ 0.2
VIRT | ≤ 0.2
CMHG | ≤ 0.2
VGSV | ≤ 0.2
DATA | ≤ 0.2
NTGC | ≤ 0.2
HAPS | ≤ 0.2
LYSS | ≤ 0.2
GPGA | ≤ 0.2
QCTF | ≤ 0.2
DMYA | ≤ 0.2

Variant | one-hybrid fitness for binding parS DNA
PIFR | ≤ 0.2
LHEL | ≤ 0.2
HAQR | ≤ 0.2
NQDT | ≤ 0.2
RVHF | 0.211
VRKG | ≤ 0.2
WHTS | ≤ 0.2
RRLG | 0.794
PRYK | ≤ 0.2
TPKL | ≤ 0.2
KVKE | ≤ 0.2
PAQC | ≤ 0.2
TLIR | ≤ 0.2
CWAY | ≤ 0.2
QPPQ | ≤ 0.2
PAVK | ≤ 0.2
INYG | ≤ 0.2
LYVP | 0.237
VKNT | ≤ 0.2
TAQD | ≤ 0.2
FESD | ≤ 0.2
LHKI | ≤ 0.2
NRCV | ≤ 0.2
ARGG | ≤ 0.2
AIES | ≤ 0.2
KVKV | ≤ 0.2

Variant | one-hybrid fitness for binding parS DNA
RGQE | ≤ 0.2
SGAY | ≤ 0.2
VYLV | ≤ 0.2
RWQM | ≤ 0.2
KRNG | ≤ 0.2
KTKM | ≤ 0.2
VSDC | ≤ 0.2
MEDR | ≤ 0.2
IRKC | ≤ 0.2
GRAM | ≤ 0.2
FSRK | ≤ 0.2
TLQM | ≤ 0.2
RWFN | ≤ 0.2
NSIA | ≤ 0.2
TWII | ≤ 0.2
SRFV | ≤ 0.2
AEQR | ≤ 0.2
RDRR | ≤ 0.2
SRMC | ≤ 0.2
REFV | ≤ 0.2
RKEM | 0.262
AWSY | ≤ 0.2
DQPW | ≤ 0.2
